24 compounds from PMC4336329 (PLoS ONE, 2015) can be followed below.

Out of some 310,000 compounds screened, about 14,000 (4.5%) showed an effect of 50% or more. The effect is printed as a negative number. The list shows a part of the results. Where a SMILES comes first, the peptide text is derived from it. The star is where a group is joined. Boc = CC(C)(C)OC(=O)*; OBn = c1ccc(CO*)cc1
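Also: peak tail current of the secondary pulse compared with the same well before compound.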

The target in the assay is human ether-à-go-go-related gene (hERG) potassium channel (human, UniProt Q12809). As to the kind of experiment: primary screen, population patch clamp on CHO cells stably expressing hERG.
Chain of human ether-à-go-go-related gene (hERG) potassium channel (Q12809 whole entry, looked up): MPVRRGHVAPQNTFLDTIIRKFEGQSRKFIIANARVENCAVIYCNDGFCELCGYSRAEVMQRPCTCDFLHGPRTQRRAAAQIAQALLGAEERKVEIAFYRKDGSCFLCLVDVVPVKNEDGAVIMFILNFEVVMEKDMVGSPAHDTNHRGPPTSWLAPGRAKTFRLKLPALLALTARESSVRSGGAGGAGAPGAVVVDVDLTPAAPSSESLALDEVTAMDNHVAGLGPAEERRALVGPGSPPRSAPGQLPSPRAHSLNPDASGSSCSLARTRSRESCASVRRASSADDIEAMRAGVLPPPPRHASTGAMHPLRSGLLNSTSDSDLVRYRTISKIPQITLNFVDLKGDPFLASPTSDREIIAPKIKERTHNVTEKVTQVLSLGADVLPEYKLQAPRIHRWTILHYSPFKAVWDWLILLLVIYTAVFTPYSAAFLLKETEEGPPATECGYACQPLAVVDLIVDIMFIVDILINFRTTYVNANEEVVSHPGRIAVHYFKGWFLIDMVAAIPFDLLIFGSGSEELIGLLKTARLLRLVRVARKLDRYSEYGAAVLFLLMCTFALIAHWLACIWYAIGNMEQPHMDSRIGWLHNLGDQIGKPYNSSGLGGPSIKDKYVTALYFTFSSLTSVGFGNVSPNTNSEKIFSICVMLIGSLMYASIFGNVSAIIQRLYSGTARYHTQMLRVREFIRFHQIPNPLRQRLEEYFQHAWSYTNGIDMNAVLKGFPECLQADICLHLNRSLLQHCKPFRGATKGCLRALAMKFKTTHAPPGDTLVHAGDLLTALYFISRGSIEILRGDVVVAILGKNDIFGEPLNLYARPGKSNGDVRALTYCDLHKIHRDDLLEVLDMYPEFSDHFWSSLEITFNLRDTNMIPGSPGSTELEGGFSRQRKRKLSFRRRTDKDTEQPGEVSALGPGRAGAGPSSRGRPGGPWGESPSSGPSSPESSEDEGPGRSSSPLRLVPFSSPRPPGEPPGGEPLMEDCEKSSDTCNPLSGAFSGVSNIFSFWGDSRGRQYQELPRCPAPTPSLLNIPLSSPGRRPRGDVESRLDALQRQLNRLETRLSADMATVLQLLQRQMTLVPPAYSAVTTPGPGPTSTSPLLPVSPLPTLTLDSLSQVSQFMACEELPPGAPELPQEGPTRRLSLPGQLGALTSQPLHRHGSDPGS
`CN1C(=O)C2(NC(=O)c3ccccc3N2C)c2ccccc21` (stereo not drawn): the “hERG current change (%, negative = inhibition) at 10uM” value turned out to be 1.73%.
Turning to `CC(C)(C)OC(=O)NCC(=O)NCC(=O)OCc1ccccc1` (Boc-Gly-Gly-OBn), the “hERG current change (%, negative = inhibition) at 10uM” value was -5.2%.
In the case of `CN1C(=O)OC2(C)CCc3ccccc3C12C` (stereo not drawn), the “hERG current change (%, negative = inhibition) at 10uM” value turned out to be 11.7%.
For `COc1ccc(C(=O)Nc2ccccc2N2CCOCC2)cc1S(=O)(=O)N1CCOCC1`, the “hERG current change (%, negative = inhibition) at 10uM” value is -17.8%.
Take `Cc1ccc(S(=O)(=O)N(C)C)cc1NC(=O)CSc1ncn[nH]1`: the “hERG current change (%, negative = inhibition) at 10uM” value turned out to be 3.1%.
The result for `O=[N+]([O-])c1ccccc1S(=O)(=O)Nc1ccc2c(c1)OCCO2` reads 1.28%; that for `CC1=C(C(=O)N2CCCC(N3CCN(c4cccc(C(F)(F)F)c4)CC3)C2)OCCO1` (stereo not drawn), -17.9%.
The result for `COc1ccc(Cc2noc(CN(C)CC3(N4CCOCC4)CCCCC3)n2)cc1OC` reads -15.5%.
As for `COc1ccc2c(c1)CCC/C2=N/OC(=O)c1ccccc1OC`, the “hERG current change (%, negative = inhibition) at 10uM” value was 7.18%.
The result for `COc1ccc(OC)c(CCNC(=O)Cn2cccc2C(=O)c2ccccc2C)c1` reads -6.7%; that for `Cc1nnsc1C(=O)Nc1cccc(Cl)c1`, 7.95%.
Turning to `CCOc1ccc(NC(=O)C/C(C)=N/NC(=O)c2cnccn2)cc1`, the “hERG current change (%, negative = inhibition) at 10uM” value is reported as -13.3%.
Regarding `Cc1nnc(NC(=O)/C=C/c2ccco2)s1`, the “hERG current change (%, negative = inhibition) at 10uM” value stood at 26.3%.
As for `Cc1ccc(NC(=S)NC(=O)c2ccc(F)cc2)cc1S(=O)(=O)Nc1cccc(Cl)c1`, the “hERG current change (%, negative = inhibition) at 10uM” value is recorded as 13.4%.
As for `CCC(NC(=O)Cc1cccs1)c1ccccc1` (stereo not drawn), the “hERG current change (%, negative = inhibition) at 10uM” value amounted to 19.5%.
The result for `Cc1cc2nn(-c3cccc4ccccc34)nc2cc1NC(=O)c1cccs1` reads 4.11%; that for `Cc1ccc(S(=O)(=O)Nc2nc3n(n2)C(c2ccc(Cl)cc2)CC(=O)N3)cc1` (stereo not drawn), 8.7%.
As to `CCN(CC(=O)Nc1ccc(NC(C)=O)cc1)C(=O)CSc1nnc(-c2ccco2)n1CC`, the “hERG current change (%, negative = inhibition) at 10uM” value is 10.8%.
Consider `Cc1nc(Nc2ccccc2Br)c2nnn(Cc3ccccc3)c2n1`, for which the “hERG current change (%, negative = inhibition) at 10uM” value is on record as 7.03%.
As for `O=C(NCc1cccnc1)c1nnc(Cc2ccc(F)cc2)o1`, the “hERG current change (%, negative = inhibition) at 10uM” value came out at 2.24%.
The result for `Cc1ccc(C(=O)N=c2sccn2C)cc1S(=O)(=O)N1CCOCC1` reads -4.4%; that for `COc1ccc(OC)c(-c2csc(NC(=O)C3CSC4(C)CCC(=O)N34)n2)c1` (stereo not drawn), 7.17%; that for `COc1ccc(N2CCN(C(=O)c3ccc(C)cc3)CC2)c([N+](=O)[O-])c1`, -62.9%.
Consider `Cc1cccc(-c2cc3nc(C)c(C)c(NCCCn4ccnc4)n3n2)c1`, for which the “hERG current change (%, negative = inhibition) at 10uM” value is on record as -68.9%.
